Changes are numbered by the printed parent chain. Numbers in names are those of the source. Results are given in words; binding and its absence hold for the method and conditions named. For part of these data: In cells and extracts the contact can be indirect. Some results given as binding are weak or reduced against the parent protein; the word gives no strength. For part of these data: Sequences can lack the tags named with a protein.

Protein sequences, listed by entry. Tags and fused reporters are not part of them. Lines headed by an entry give the natural chain unless they say otherwise; changes in a name come on top.
UniProt Q9NQC8: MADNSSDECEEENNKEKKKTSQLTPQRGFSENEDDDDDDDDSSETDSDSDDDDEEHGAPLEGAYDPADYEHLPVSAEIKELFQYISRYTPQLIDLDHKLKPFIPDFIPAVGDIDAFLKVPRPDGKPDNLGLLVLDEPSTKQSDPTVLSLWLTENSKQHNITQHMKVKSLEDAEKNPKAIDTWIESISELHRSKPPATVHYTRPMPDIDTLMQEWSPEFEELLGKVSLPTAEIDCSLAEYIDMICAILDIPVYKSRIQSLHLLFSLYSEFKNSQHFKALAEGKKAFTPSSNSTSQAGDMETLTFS

For 5 molecules, binding results are on record in paper PMC11879689, “Integrative in silico and biochemical analyses demonstrate direct Arl3-mediated ODA16 release from the intraflagellar transport machinery” (The Journal of Biological Chemistry, 2025).

The target in assay [1] is T1, full-length CrODA16 (CrODA16fl) (Chlamydomonas reinhardtii, UniProt Q3Y8L7 1-446).
T1 construct: ODA16, Chlamydomonas reinhardtii, full length (N-terminal domain residues 1-80, C-terminal beta-propeller residues 80-445); it may be the same protein as CrODA16-HT
T1 sequence (looked up): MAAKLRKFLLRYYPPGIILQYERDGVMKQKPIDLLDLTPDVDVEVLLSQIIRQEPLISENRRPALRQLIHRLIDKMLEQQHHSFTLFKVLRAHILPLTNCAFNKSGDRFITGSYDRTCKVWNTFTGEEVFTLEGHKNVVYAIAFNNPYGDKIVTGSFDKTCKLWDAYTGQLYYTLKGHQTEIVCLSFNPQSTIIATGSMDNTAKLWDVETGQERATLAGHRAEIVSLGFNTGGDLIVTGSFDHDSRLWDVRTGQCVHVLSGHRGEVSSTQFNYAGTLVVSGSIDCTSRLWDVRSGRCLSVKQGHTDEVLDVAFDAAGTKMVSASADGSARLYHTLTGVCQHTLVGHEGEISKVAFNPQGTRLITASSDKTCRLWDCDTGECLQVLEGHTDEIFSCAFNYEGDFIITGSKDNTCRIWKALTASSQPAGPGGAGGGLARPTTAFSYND
Description: SEC; Superose 6 Increase 10/300 column; SDS-PAGE of the peaks; both purified. (In general: Size exclusion chromatography separates by hydrodynamic size, large species first.)

For assay [2], the target named is T2, hexa-His-tagged CrODA16 (CrODA16-HT) (Chlamydomonas reinhardtii, UniProt Q3Y8L7 1-446).
T2 construct: ODA16, Chlamydomonas reinhardtii; Bait on nickel resin
T2 sequence (looked up): T1 sequence (looked up)
The assay is described as follows: condition: prey 20–30 μM, bait 10 μM (general pull-down methods); pull-down; CrODA16-HT (10 μM) immobilised on nickel resin, one prey (20–30 μM), 1 h 4 °C; 10 mM HEPES pH 7.5, 200 mM NaCl, 2 mM MgCl2, 1 mM DTT; eluted with 500 mM imidazole, SDS-PAGE; CrArl3 nucleotide-free; both purified.

The target of assay [3] is T3, HsIFT46_Cr (chimeric HsIFT46 with residues 4-26 replaced by CrIFT46 residues 22-44), GFP-tagged (human | Chlamydomonas reinhardtii) (UniProt Q9NQC8+A2T2X4).
T3 sequence: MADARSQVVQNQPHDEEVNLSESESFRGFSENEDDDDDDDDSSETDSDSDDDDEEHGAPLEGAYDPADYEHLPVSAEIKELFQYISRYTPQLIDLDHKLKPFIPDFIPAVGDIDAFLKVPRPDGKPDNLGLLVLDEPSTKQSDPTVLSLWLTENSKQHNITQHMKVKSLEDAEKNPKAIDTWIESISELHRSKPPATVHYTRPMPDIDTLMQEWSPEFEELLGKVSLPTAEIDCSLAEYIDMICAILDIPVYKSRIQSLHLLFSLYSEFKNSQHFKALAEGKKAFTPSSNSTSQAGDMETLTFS
The assay is described as follows: pull-down; GFP-tagged HsIFT46_Cr from HEK293s cell lysate immobilised on GFP-Binder beads, purified ODA16 as prey; 200 mM NaCl; eluted with 0.1 M citric acid; only the binder purified.

Assay [4] has as its target T4, GST-HsIFT74(1-272)/HsIFT81(1-215) complex (human) (UniProt Q96LB3+Q8WYA0).
T4 sequence 1: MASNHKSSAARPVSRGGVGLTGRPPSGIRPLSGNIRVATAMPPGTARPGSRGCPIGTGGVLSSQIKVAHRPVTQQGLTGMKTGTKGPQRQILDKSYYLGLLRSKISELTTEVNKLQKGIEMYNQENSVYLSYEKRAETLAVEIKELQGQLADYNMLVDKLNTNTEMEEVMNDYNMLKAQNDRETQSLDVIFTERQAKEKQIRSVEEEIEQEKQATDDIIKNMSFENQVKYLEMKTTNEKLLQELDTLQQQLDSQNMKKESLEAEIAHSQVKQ
T4 sequence 2: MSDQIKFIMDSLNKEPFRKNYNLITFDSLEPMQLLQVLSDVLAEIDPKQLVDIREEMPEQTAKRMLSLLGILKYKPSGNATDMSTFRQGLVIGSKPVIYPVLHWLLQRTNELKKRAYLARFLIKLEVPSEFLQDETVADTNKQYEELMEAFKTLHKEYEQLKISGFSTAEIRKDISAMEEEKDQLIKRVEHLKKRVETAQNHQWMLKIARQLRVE
Description: condition: prey 20–30 μM, bait 10 μM (general pull-down methods); pull-down; GST-tagged bait (10 μM) immobilised on GSH resin, prey 20–30 μM, 1 h 4 °C; 10 mM HEPES pH 7.5, 200 mM NaCl, 2 mM MgCl2, 1 mM DTT; eluted with 33 mM reduced glutathione, SDS-PAGE; both purified.

B1: CrIFT46/56 complex (complex, UniProt A2T2X4 1-344; A8JA42 1-555)
chain 1: MDDSMDYPDRDGDDLDQFQGTARSQVVQNQPHDEEVNLSESESFAGADEPPAAPRDASLIESHDMDEGPAAPARTLSPTGYEAGKHAPGGIANSDEAPPGAYNAQEYKHLNVGEDVRELFSYIGRYKPQTVELDTRIKPFIPDYIPAVGGIDEFIKVPRPDTKPDYLGLKVLDEPAAKQSDPTVLTLQLRQLSKEAPGAKADMVGRLEHTDENKAKKIQQWIASINDIHKAKPAATVNYSKRMPEIEALMQEWPPEVETFLKTMHMPSGDVELDIKTYARLVCTLLDIPVYDDPVESLHVLFTLYLEFKNNPIFRQHMEMENKLDGMSGGGGGMMGGGADVLGL
chain 2: MFYSKSRPQHAARTNVAQAAANEKPKVPELEEFLTKRDYLGAIALLSFRRHANRNDLKNLEWLAYCYFHYGEHDKALVIYKELLQHEDPDPMFFVYSAACLYYMGMYKEAEEQALQGPKCALQTRILFHSAQRQGNDDKLMAYHGQLTDSIEDQLTLASIHYQRSHFQEATDIYKRLLLEHRDYLRSTVVYVALCYCKLDYYDVSLEILGVYLSAFPDSAIAVNLKACNHFRMYNGKAAEAELKTLAELSGGQHLDHDLIRHNLVVFRGGENALQVLPPLSDIPPEARLNLVIHHLRHHEVGEAFGLIKDMEPSTPPEFILKAVVHAMLGQVKGDPEHLKKAQQYYQLVGASASECDTIPGRQCMASCFFLLKQFEDVLVFLSSIKTYFLNDDDFNWNLGIAKAATGKYKEAEETLLQIANDKYRNEYTYTSWLARCYIMNGKARLAWERYLQLETNDESYQLLLLIANDCYKMGAFYFACKAFDVLERLDPAPEYLEGKKGAACGAFQMIVAGKEPKDLLRDVISLLRGNNSADQCEPIVAVMRKWAKNNGVKL
In the case of B1, the binding entry in assay [1] is listed as “binds”.

B2: CrIFT46_32HDEE35_AAAA (protein, UniProt A2T2X4 1-344)
chain: B1 chain 1 with H32A, D33A, E34A, E35A
In the case of B2, the binding result in assay [2] is on record as “no binding”.

B3: CrIFT46 D33K (protein, UniProt A2T2X4 1-344)
chain: B1 chain 1 with D33K
Consider B3, for which the binding entry in assay [2] is “no binding”.

B4: full-length CrODA16 (CrODA16fl) (protein, UniProt Q3Y8L7 1-446)
chain: T1 sequence (looked up)
Consider B4, for which the binding entry in assay [3] is on record as “binds”.

B5: HsODA16 (protein, UniProt Q8N136 1-415)
chain: MKLKSLLLRYYPPGIMLEYEKHGELKTKSIDLLDLGPSTDVSALVEEIQKAEPLLTASRTEQVKLLIQRLQEKLGQNSNHTFYLFKVLKAHILPLTNVALNKSGSCFITGSYDRTCKLWDTASGEELNTLEGHRNVVYAIAFNNPYGDKIATGSFDKTCKLWSVETGKCYHTFRGHTAEIVCLSFNPQSTLVATGSMDTTAKLWDIQNGEEVYTLRGHSAEIISLSFNTSGDRIITGSFDHTVVVWDADTGRKVNILIGHCAEISSASFNWDCSLILTGSMDKTCKLWDATNGKCVATLTGHDDEILDSCFDYTGKLIATASADGTARIFSAATRKCIAKLEGHEGEISKISFNPQGNHLLTGSSDKTARIWDAQTGQCLQVLEGHTDEIFSCAFNYKGNIVITGSKDNTCRIWR
Take B5: the values for the binding result in assay [3] and in assay [4] were “binds” and “no binding”, respectively.
